# Measured values taken from the antibiotic and cytotoxicity screens of Wong et al. (2023).
# The other results are listed elsewhere or left out.
# Assays:
# [1] = system: HSkMC (human skeletal muscle cells); assay: cytotoxicity call (relative viability < 0.9); settings: 10 µM
# [2] = system: HepG2; assay: cytotoxicity call (relative viability < 0.9); settings: 10 µM
# [3] = system: S. aureus RN4220; assay: growth inhibition call (relative growth <= 0.2); settings: 50 µM
Compound,cytotoxicity call [1],cytotoxicity call [2],growth inhibition call [3]
Cc1noc(C)c1S(=O)(=O)Nc1ccc2c(c1)CC(=O)N([C@H](C)CO)C[C@@H](C)[C@@H](CN(C)C(=O)Nc1ccc3c(c1)OCO3)O2,inactive,inactive,inactive
COc1ccccc1C(=O)Nc1ccc2c(c1)C(=O)N(C)[C@@H]1CC[C@@H](CC(=O)NCc3ccc(Cl)c(Cl)c3)O[C@H]1CO2,active,inactive,inactive
C[C@@H]1CN([C@H](C)CO)S(=O)(=O)c2ccc(C#CCN(C)C)cc2O[C@H]1CN(C)C(=O)C1CCCCC1,inactive,inactive,inactive
CO[C@H](CN(C)C(=O)C1CCOCC1)[C@H](C)CN(C(=O)Nc1ccc(C(F)(F)F)cc1)[C@H](C)CO,inactive,inactive,active
O=C(C[C@H]1C[C@H]2c3cc(NC(=O)Cc4ccncc4)ccc3O[C@H]2[C@H](CO)O1)NCc1cc(F)ccc1F,inactive,inactive,inactive
C[C@H]1CCCCO[C@H](CN(C)Cc2ccccc2)[C@@H](C)CN([C@@H](C)CO)C(=O)c2cc(NC(=O)Nc3cccc4ccccc34)ccc2O1,active,active,inactive
C[C@H](O)C#Cc1cnc2c(c1)C(=O)N([C@@H](C)CO)C[C@@H](C)[C@H](CN(C)C(=O)CN1CCOCC1)O2,inactive,inactive,inactive
COc1ccc(NC(=O)N(C)C[C@@H]2Oc3ccc(NC(=O)Cn4cnnn4)cc3CC(=O)N([C@@H](C)CO)C[C@H]2C)cc1,inactive,inactive,inactive
COc1ccccc1S(=O)(=O)N[C@H]1CC[C@@H](CCNC(=O)C2CCOCC2)O[C@@H]1CO,inactive,inactive,inactive
C[C@H]1CN([C@@H](C)CO)C(=O)Cc2cc(NC(=O)C3CCCCC3)ccc2O[C@@H]1CN(C)C(=O)Nc1cccc2ccccc12,inactive,inactive,inactive
COc1ccc(CN(C)C[C@@H]2Oc3c(NC(=O)c4ccc(-c5nccs5)cc4)cccc3C(=O)N([C@@H](C)CO)C[C@H]2C)cc1,inactive,active,inactive
COc1ccc(S(=O)(=O)Nc2cccc3c2O[C@H](CN(C)C(=O)Nc2cccc4ccccc24)[C@@H](C)CN([C@@H](C)CO)C3=O)cc1,inactive,inactive,inactive
C[C@@H]1CN([C@@H](C)CO)S(=O)(=O)c2ccc(C3=CCCC3)cc2O[C@H]1CN(C)C(=O)C1CCOCC1,inactive,inactive,inactive
C[n+]1cc2c3c(ccc2c2ccc4cc5c(cc4c21)OCO5)OCO3.[Cl-],active,active,inactive
Cc1nc(C)n(C(=O)N2CCOCC2)n1,inactive,inactive,inactive
CNC(=O)C[C@H]1Nc2ccccc2NC1=O,inactive,inactive,inactive
Cc1ccc(S(=O)(=O)Nc2ccc3c(c2)C(=O)N([C@@H](C)CO)C[C@H](C)[C@@H](CN(C)Cc2ccncc2)OCCCC[C@@H](C)O3)cc1,inactive,inactive,inactive
C[C@H](CO)N1C[C@H](C)[C@@H](CN(C)S(=O)(=O)c2cn(C)cn2)Oc2ccc(NC(=O)C3CC3)cc2C1=O,inactive,inactive,inactive
COc1ccc(S(=O)(=O)Nc2ccc3c(c2)C(=O)N([C@H](C)CO)C[C@H](C)[C@@H](CN(C)C(=O)Nc2ccccc2)OCCCC[C@@H](C)O3)cc1,inactive,inactive,inactive

Compound,cytotoxicity call [1],cytotoxicity call [2],growth inhibition call [3]
CN1CCN(C(=O)C[C@@H]2C=C[C@H](NC(=O)Nc3ccccc3F)[C@H](CO)O2)CC1,inactive,inactive,inactive
COc1ccc(N)cn1,inactive,inactive,inactive
C[C@@H]1CN([C@H](C)CO)C(=O)c2cc(NS(=O)(=O)c3ccc(Cl)cc3)ccc2O[C@@H]1CN(C)Cc1ccc(Cl)c(Cl)c1,active,active,inactive
C[C@H](CO)N1C[C@H](C)[C@H](CN(C)S(=O)(=O)c2ccc(F)cc2)Oc2ccc(NC(=O)CCN3CCOCC3)cc2C1=O,inactive,inactive,inactive
C[C@@H]1CN([C@H](C)CO)C(=O)c2cc(NS(=O)(=O)c3ccc(Cl)cc3)ccc2O[C@H]1CN(C)C(=O)Nc1cccc2ccccc12,inactive,inactive,inactive
C[C@@H]1CCCCO[C@H](CN(C)C(=O)Nc2ccc(C(F)(F)F)cc2)[C@@H](C)CN([C@H](C)CO)C(=O)c2cc(NC(=O)Nc3ccc4c(c3)OCO4)ccc2O1,inactive,inactive,inactive
C=CCOC(=O)[C@@H]1[C@H]2C(=O)O[C@H](c3ccccc3)[C@H](c3ccccc3)N2[C@H](c2ccc(OCCOC(=O)[C@H]3C[C@H]4C(=O)N5CCC[C@H]5C(=O)N4[C@H]3c3cccc(OCCO)c3)cc2)[C@@]12C(=O)Nc1ccc(I)cc12,inactive,inactive,inactive
C[C@H](CO)N1C[C@H](C)[C@H](CN(C)S(=O)(=O)c2ccc(F)cc2)Oc2ccc(NC(=O)Cc3ccccc3)cc2CC1=O,inactive,inactive,inactive
O=C(NS(=O)(=O)c1ccccc1)c1nnc[nH]1,inactive,inactive,inactive
CC(CC(=O)C1OC1(C)C)C1C(=O)CC2(C)C3=CCC4C(C)(C)C(OC5OCC(O)C(O)C5O)CCC45CC35C(O)CC12C (stereo unspecified),inactive,active,inactive
CCOC(=O)N(C)C[C@H]1OCc2cnnn2CCCC(=O)N([C@@H](C)CO)C[C@H]1C,inactive,inactive,inactive
CO[C@H](CN(C)C(=O)C1CCOCC1)[C@@H](C)CN(C(=O)Nc1ccc(C(F)(F)F)cc1)[C@H](C)CO,inactive,inactive,active
C[C@@H]1CCCCO[C@H](CN(C)C)[C@H](C)CN([C@@H](C)CO)C(=O)c2cc(NC(=O)CCCN(C)C)ccc2O1,inactive,inactive,inactive
Cc1ccc(S(=O)(=O)N(C)C[C@H]2Oc3c(NS(=O)(=O)c4cn(C)cn4)cccc3C(=O)N([C@H](C)CO)C[C@@H]2C)cc1,inactive,inactive,inactive
C[C@H](CO)N1C[C@H](C)[C@@H](CN(C)C(=O)Nc2ccc(F)cc2)Oc2ccc(NC(=O)C3CC3)cc2CC1=O,inactive,inactive,inactive
CCC(=O)N[C@H]1CC[C@H](CC(=O)OC)O[C@H]1CO,inactive,inactive,inactive
C[C@@H]1CN([C@@H](C)CO)C(=O)c2cc(Br)cnc2O[C@H]1CN(C)Cc1cccc(C(=O)O)c1,inactive,inactive,inactive
CC(C)NC(=O)N(C)C[C@H]1Oc2ccc(NS(=O)(=O)c3ccc(Cl)cc3)cc2CC(=O)N([C@H](C)CO)C[C@@H]1C,inactive,inactive,inactive
O=C(O)CCCCC1SCC2NC(=O)NC21 (stereo unspecified),inactive,inactive,inactive

Compound,cytotoxicity call [1],cytotoxicity call [2],growth inhibition call [3]
COc1ccc2[nH]c(S(=O)Cc3ncc(C)c(OC)c3C)nc2n1 (stereo unspecified),inactive,inactive,inactive
NC(=O)NCc1ccc2c(c1)OCO2,inactive,inactive,inactive
COCC(=O)Nc1ccc2c(c1)C(=O)N(C)[C@H]1CC[C@@H](CC(=O)NC3Cc4ccccc4C3)O[C@H]1CO2,inactive,inactive,inactive
C[C@@H]1CN([C@H](C)CO)C(=O)c2cc(NS(=O)(=O)c3ccc(Cl)cc3)ccc2O[C@H]1CN(C)S(C)(=O)=O,inactive,inactive,inactive
C[C@@H]1CCCCO[C@@H](CN(C)CC2CCCCC2)[C@H](C)CN([C@@H](C)CO)C(=O)c2cc(NC(=O)Nc3ccc4c(c3)OCO4)ccc2O1,inactive,inactive,inactive
NC(=O)c1ccnc(Cl)c1,inactive,inactive,inactive
C[C@H](CO)N1C[C@H](C)[C@@H](CN(C)Cc2ccc(Cl)c(Cl)c2)OCCCC[C@H](C)Oc2ccc(NC(=O)Cc3ccccc3)cc2C1=O,inactive,active,inactive
COc1ccc2c3c(n(c2c1)C)[C@H](CO)N(C[C@]13CCN(CC1)C(=O)C1CC1)C(=O)CN1CCOCC1,inactive,inactive,inactive
C[C@@H]1CN([C@@H](C)CO)C(=O)c2cccc(NC(=O)C3CCOCC3)c2O[C@H]1CN(C)Cc1ccc(C(=O)O)cc1,inactive,inactive,inactive
COc1ccc(-c2cnc3c(c2)C(=O)N([C@H](C)CO)C[C@H](C)[C@@H](CN(C)C(=O)Cc2cccnc2)O3)cc1,inactive,inactive,inactive
C[C@H]1CN([C@@H](C)CO)C(=O)Cc2cc(NC(=O)C3CC3)ccc2O[C@H]1CN(C)S(=O)(=O)c1ccccc1,inactive,inactive,inactive
O=C(O)[C@H](Cc1ccc(Nc2nccc3ccncc23)cc1)NC1=C(Br)C(=O)C12CCCCC2,inactive,inactive,inactive
C[C@@H]1CN([C@@H](C)CO)S(=O)(=O)c2ccc(Br)cc2O[C@H]1CN(C)S(=O)(=O)c1ccccc1,inactive,inactive,inactive
CC(=O)NCC1CN(c2ccc(N3CCOCC3)c(F)c2)C(=O)O1 (stereo unspecified),inactive,inactive,active
Cc1cc(C(=O)Nc2cccc3c2O[C@@H](CN(C)S(=O)(=O)c2ccc(F)cc2)[C@H](C)CN([C@H](C)CO)C3=O)n(C)n1,inactive,inactive,inactive
C[C@H]1CCCCO[C@H](CN(C)C(=O)Nc2ccccc2)[C@@H](C)CN([C@@H](C)CO)C(=O)c2cc(NC(=O)c3ccncc3)ccc2O1,inactive,inactive,inactive
CCC[C@@H](O)C#Cc1cnc2c(c1)C(=O)N([C@H](C)CO)C[C@H](C)[C@H](CN(C)C(=O)NC1CCCCC1)O2,inactive,inactive,inactive
CO[C@@H]1CN(C)C(=O)c2cc(NC(=O)c3ccccc3)ccc2OC[C@@H](C)N(C(=O)CN(C)C)C[C@H]1C,inactive,inactive,inactive
C[C@@H]1CN([C@H](C)CO)C(=O)c2cccc(NS(=O)(=O)c3ccc(Cl)cc3)c2O[C@@H]1CN(C)C(=O)Nc1cccc2ccccc12,inactive,inactive,inactive
